From article PMC10201506 (Signal Transduction and Targeted Therapy, 2023)
Where a name gives a salt, the structure may show the parent alone. Read-outs that look alike come from different tables or passages of the source.

How the values were obtained:
[1] = molecular target: trypsin (Homo sapiens, UniProt P07477); assay: biochemical
[2] = molecular target: Cathepsin B (Homo sapiens, UniProt P07858); assay: Cathepsin B enzymatic assay; assay type: biochemical; conditions: positive control; read-out: IC50 Cathepsin B
[3] = molecular target: Cathepsin L (Homo sapiens, UniProt P07711); assay: Cathepsin L enzymatic assay; assay type: biochemical; conditions: positive control; read-out: IC50 Cathepsin L
[4] = molecular target: T1, Cathepsin K (Homo sapiens, UniProt P43235); assay: Cathepsin K enzymatic assay; assay type: biochemical
T1 sequence (P43235 115-329): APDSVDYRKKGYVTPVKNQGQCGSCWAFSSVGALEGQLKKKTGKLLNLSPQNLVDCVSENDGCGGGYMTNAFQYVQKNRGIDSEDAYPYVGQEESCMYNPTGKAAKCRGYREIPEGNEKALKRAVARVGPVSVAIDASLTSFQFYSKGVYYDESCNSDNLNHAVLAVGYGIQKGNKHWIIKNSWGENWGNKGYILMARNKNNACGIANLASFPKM

[5] = molecular target: T2, SARS-CoV-2 3CL^pro (Severe acute respiratory syndrome coronavirus 2, UniProt P0DTC1); assay: biochemical; conditions: IC50, time-dependent inhibition
[6] = molecular target: SARS-CoV-1 3CL^pro (Severe acute respiratory syndrome coronavirus, UniProt P0C6U8); assay: biochemical
[7] = molecular target: SARS-CoV-2 PL^pro (Severe acute respiratory syndrome coronavirus 2, UniProt P0DTC1); assay: biochemical; conditions: text and positive control footnote; read-out: IC50 SARS-CoV-2 PLpro
[8] = molecular target: SARS-CoV-2 RdRp (Severe acute respiratory syndrome coronavirus 2, UniProt P0DTD1); assay: biochemical
[9] = tested on: SARS-CoV-2 original strain; assay: Cell-based antiviral activity assay, original strain, Vero E6; conditions: Severe acute respiratory syndrome coronavirus 2, Vero C1008; Vero E6 cells, viral RNA by qRT-PCR 24 h post infection, n = 3; read-out: EC50 SARS-CoV-2 WT (original strain) replication
[10] = tested on: HCoV-OC43; assay: In vitro antiviral activity against HCoV-OC43; assay type: cell-based; conditions: in words
[11] = molecular target: T2, SARS-CoV-2 3CL^pro; assay: Enzyme kinetic studies (Lineweaver-Burk, global fit); assay type: biochemical
[12] = molecular target: T2, SARS-CoV-2 3CL^pro; assay: Bio-layer interferometry (BLI) binding
[13] = tested on: Vero E6 cells; conditions: African green monkey
[14] = in vivo; conditions: mouse

CN(C)C(=O)COC(=O)Cc1ccc(OC(=O)c2ccc(NC(=N)N)cc2)cc1 [Camostat mesylate, reference compound]
IC50 [1]: 101 ± 26.4 nM

CC(C)C[C@H](NC(=O)[C@H]1O[C@@H]1C(=O)O)C(=O)NCCCCN=C(N)N [Compound E-64]
IC50 [2]: 13.4 ± 1.4 nM
IC50 [3]: 65 ± 8.9 nM
IC50 ([4]; positive control, read-out: IC50 Cathepsin K): 13.6 ± 5 nM

O=C(c1cc(=O)[nH]c2ccccc12)N1CCN(c2ccc(Cl)c(Cl)c2)CC1CN1CCOCC1 (centres unmarked) [JZD-07, 4-(4-(3,4-Dichlorophenyl)-2-(morpholinomethyl)piperazine-1-carbonyl)quinolin-2(1H)-one]
IC50 [5]: 120 ± 10 nM
IC50 [6]: 110 nM
IC50 [7]: > 100000 nM
IC50 ([8]; text: viral life cycle related targets, read-out: IC50 SARS-CoV-2 RdRp): > 100000 nM
IC50 [4]: > 100000 nM
EC50 [9]: 820 nM
antivirus activity against HCoV-OC43 [10]: good antivirus activities
Ki [11]: 117 nM
mode of inhibition ([11]; Lineweaver-Burk plot): competitive inhibitor
koff [12]: 0.028 S^-1
kon [12]: 2.36 × 10^5 M^-1S^-1
CC50 [13]: > 300000 nM
AUC(0-inf) ([14]; ip, 10 mg/kg): 2280 ng·h/mL
Cmax ([14]; ip, 10 mg/kg): 1610 ng/mL
bioavailability ([14]; po, 20 mg/kg): 28.1%

Cc1ccc(C(=O)Nc2ccc(S(=O)(=O)O)c3cc(S(=O)(=O)O)cc(S(=O)(=O)O)c23)cc1NC(=O)c1cccc(NC(=O)Nc2cccc(C(=O)Nc3cc(C(=O)Nc4ccc(S(=O)(=O)O)c5cc(S(=O)(=O)O)cc(S(=O)(=O)O)c45)ccc3C)c2)c1 [suramin, reference compound]
IC50 [8]: 364.5 ± 3 nM
